Results as given in the supplement of paper PMC12645437, “Orthogonal IMiD-Degron Pairs Induce Selective Protein Degradation in Cells” (ACS Chemical Biology, 2025).
The list shows a part of the results.

molecular target: no compound (DMSO); assay: log2 fold change of degron read counts, EGFP-low vs EGFP+ sorted cells; higher = lower degron-EGFP level without compound (poor expression or instability); details: compound: DMSO control; 18 h
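Also: jurkat cells carrying a lentiviral library of mutant zinc finger degrons fused to EGFP plus mCherry, mCherry+ cells FACS sorted, degron abundance counted by next-generation sequencing.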

Sequence | log2 fold change of degron read counts
FDCPQCGANFTQKGNLLRHIKL | -2.64
FFCDICGANFTQKGNLLRHIKL | -0.875
FHCDVCGAGFTQKGNLLRHIKL | -1.2
FFCEVCGATFTQKGNLLRHIKL | -1.49
FVCNVCGACFTQKGNLLRHIKL | -0.651
FGCPICGRTFTQKGNLLRHIKL | -0.352
FVCNQCGAKFTQKGNLLRHIKL | -0.684
FHCPQCGAWFTQKGNLLRHIKL | 0.203
FNCPQCGANFTQKGNLLRHIKL | -1.3
FMCSVCGHMFTQKGNLLRHIKL | 0.361
LHCNQCGFFCTQKGNLLRHIKL | 1.78
FWCNQCGHAFTQKGNLLRHIKL | 0.583
FHCDQCGAQFTQKGNLLRHIKL | -1.2
FNCEICGAYFTQKGNLLRHIKL | -0.595
FYCPQCGAKFTQKGNLLRHIKL | -0.295
LLCPICGFQCTQKGNLLRHIKL | 0.772
FVCEICGHIFTQKGNLLRHIKL | -0.645
FNCDVCGAQFTQKGNLLRHIKL | -1.94
FYCNQCGHEFTQKGNLLRHIKL | -0.541
FKCDICGAVFTQKGNLLRHIKL | -1.58
FKCPICGHSFTQKGNLLRHIKL | -0.795
LRCNQCGFRCTQKGNLLRHIKL | 1.34
FDCNQCGHRFTQKGNLLRHIKL | 0.376
FACEVCGAMFTQKGNLLRHIKL | -0.269
LGCNQCGFCCTQKGNLLRHIKL | 0.862

Sequence | log2 fold change of degron read counts
FLCSVCGHMFTQKGNLLRHIKL | 0.481
LDCNQCGFSCTQKGNLLRHIKL | -0.117
FECNVCGAMFTQKGNLLRHIKL | -1.2
FYCPICGRLFTQKGNLLRHIKL | -1.8
FQCEVCGAAFTQKGNLLRHIKL | -1.7
FKCNQCGRWFTQKGNLLRHIKL | 0.426
FMCEICGHCFTQKGNLLRHIKL | -1.93
FECEICGRQFTQKGNLLRHIKL | -1.37
FSCNICGANFTQKGNLLRHIKL | -0.931
FSCPICGRDFTQKGNLLRHIKL | -0.689
FSCDQCGAFFTQKGNLLRHIKL | -0.866
FMCEVCGAYFTQKGNLLRHIKL | -1.09
FTCNVCGARFTQKGNLLRHIKL | -1.02
FRCSVCGHPFTQKGNLLRHIKL | 0.325
LQCEICGFQCTQKGNLLRHIKL | -0.278
FYCPICGAPFTQKGNLLRHIKL | 0.861
LKCEICGFVCTQKGNLLRHIKL | -0.596
FNCPQCGAGFTQKGNLLRHIKL | -1.71
FNCDICGALFTQKGNLLRHIKL | -0.704
FECPVCGACFTQKGNLLRHIKL | -0.738
FFCDVCGAAFTQKGNLLRHIKL | -0.25
FGCNQCGAFFTQKGNLLRHIKL | 0.269
FVCPQCGAKFTQKGNLLRHIKL | -1.37
FMCNICGADFTQKGNLLRHIKL | -1.05
FFCSVCGHWFTQKGNLLRHIKL | 1.79
